Reference: a collection of fitness landscapes (doi:10.1016/j.celrep.2020.107928)
In all, about 81,000 sequences were measured (“one-hybrid fitness for binding parS DNA”: median about -0.17, highest 2% from about 0.51 on). This is one part of the list.

B1: Caulobacter ParB omega fusion; a variant is named by its letters at X, in order, B8GW30 (parent)
chain: MESVVVGEPGMSEGRRGLGRGLSALLGEVDAAPAQAPGEQLGGSREAPIEILQRNPDQPRRTFREEDLEDLSNSIREKGVLQPILVRPSPDTAGEYQIVAGERAWRAAQRAGLKTVPIMVRELDDLAVLEIGIIENVQRADLNVLEEALSYKVLMEKFERTQENIAQTIGKSXSHVANXMRLLXLPDEVQSYLVSGELTAXHARAIAAAADPVALAKQIIEGGLSVRETEALARKAPNLSAGKSKGGRPPRVKDTDTQALESDLSSVLGLDVSIDHRGSTGTLTITYATLEQLDDLCNRLTRGI

Variants of: B1
Experiment: one-hybrid fitness for binding parS DNA (scaled: cognate 1, non-cognate 0); higher = stronger binding
Conditions: with parS DNA site
Summary of the method: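 Values were rescaled so that cognate is 1 and non-cognate is 0. Each is a fitness, the log change in a variant's read ratio to wild type from Illumina reads of plasmids before and after selection, with three replicate libraries pooled and variants under 10 reads dropped. Selection of the Caulobacter ParB libraries, four specificity codons randomised, used E. coli USO with a HIS3 reporter, site 19 bp from the promoter, on M9-minus-histidine with 0.1 mM IPTG and 5 mM 3-AT for 48 hours at 37°C.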

Point of comparison: RFIG, “one-hybrid fitness for binding parS DNA” value 0.685. Against it:
- DNRH — lower, ≤ 0.2
- RGLC — lower, 0.537
- QMWV — lower, ≤ 0.2
- TCLP — lower, ≤ 0.2
- EMQG — lower, ≤ 0.2
- LAYQ — lower, ≤ 0.2
- MTCS — lower, ≤ 0.2
- AGRF — lower, ≤ 0.2
- SPVK — lower, ≤ 0.2
- RSTP — lower, ≤ 0.2
- YCIR — lower, ≤ 0.2
- NAES — lower, ≤ 0.2
- QDRT — lower, ≤ 0.2
- AMAY — lower, ≤ 0.2
- AKAE — lower, ≤ 0.2
- QTVM — lower, ≤ 0.2
- PHFH — lower, ≤ 0.2
- KPVF — lower, ≤ 0.2
- GITY — lower, ≤ 0.2
- VHPY — lower, ≤ 0.2
- QCSG — lower, ≤ 0.2
- IMLI — lower, ≤ 0.2
- HWAI — lower, ≤ 0.2
- AKAC — lower, ≤ 0.2
- TPQG — lower, ≤ 0.2
- IPDS — lower, ≤ 0.2
- WTRA — lower, ≤ 0.2
- APAG — lower, ≤ 0.2
- YTQY — lower, ≤ 0.2
- SYKC — lower, ≤ 0.2
- IMAY — lower, ≤ 0.2
- NFSY — lower, ≤ 0.2
- TGPE — lower, ≤ 0.2
- AKRC — lower, ≤ 0.2
- TIGR — lower, ≤ 0.2
- TLRA — lower, ≤ 0.2
- FYMS — lower, ≤ 0.2
- QGPW — lower, ≤ 0.2
- RTFK — lower, ≤ 0.2
- ISQG — lower, ≤ 0.2
- RKET — higher, 0.799
- HQTA — lower, ≤ 0.2
- WSAC — lower, ≤ 0.2
- FHTM — lower, ≤ 0.2
- TSFR — lower, ≤ 0.2
- STTT — lower, ≤ 0.2
- PLPW — lower, ≤ 0.2
- TESG — lower, ≤ 0.2
- MFKY — lower, ≤ 0.2
- GAVG — lower, ≤ 0.2
- WHMS — lower, ≤ 0.2
- PTIM — lower, ≤ 0.2
- VWPG — lower, ≤ 0.2
- NFYC — lower, ≤ 0.2
- YSVS — lower, ≤ 0.2
- PAKF — lower, ≤ 0.2
- HRKT — lower, ≤ 0.2
- QIGG — lower, ≤ 0.2
- EHDE — lower, ≤ 0.2
- KMVV — lower, ≤ 0.2
- CLRI — lower, ≤ 0.2
- CLYA — lower, ≤ 0.2
- ATEL — lower, ≤ 0.2
- PCAI — lower, ≤ 0.2
- PPVP — lower, ≤ 0.2
- LGSS — lower, ≤ 0.2
- TLHC — lower, ≤ 0.2
- RELV — lower, ≤ 0.2
- QVIW — lower, ≤ 0.2
- KQCW — lower, 0.321
- ILVA — lower, ≤ 0.2
- ALEC — lower, ≤ 0.2
- RVMP — lower, ≤ 0.2
- MVMT — lower, ≤ 0.2
- YAGT — lower, ≤ 0.2
- SIKT — lower, ≤ 0.2
- PNNT — lower, ≤ 0.2
- QTRA — lower, ≤ 0.2
- SNQL — lower, ≤ 0.2
- GPKK — lower, ≤ 0.2
- ALKD — lower, ≤ 0.2
- WSES — lower, ≤ 0.2
- IVGG — lower, ≤ 0.2
- SDHE — lower, ≤ 0.2
- DGVG — lower, ≤ 0.2
- EVTS — lower, ≤ 0.2
- CYAL — lower, ≤ 0.2
- ISFY — lower, ≤ 0.2
- LCMM — lower, ≤ 0.2
- TPMQ — lower, ≤ 0.2
- VRQC — lower, ≤ 0.2
- REYG — lower, ≤ 0.2
- CNVL — lower, ≤ 0.2
- SHCD — lower, ≤ 0.2
- MHKR — lower, ≤ 0.2
- KQPS — lower, ≤ 0.2
- IGRL — lower, ≤ 0.2
- RFQR — lower, ≤ 0.2
- SQTA — lower, ≤ 0.2
- QMII — lower, ≤ 0.2
- GFRP — lower, ≤ 0.2
- FNPS — lower, ≤ 0.2
- HYVT — lower, ≤ 0.2
- LTIG — lower, ≤ 0.2
- KNHC — lower, ≤ 0.2
- HTLP — lower, ≤ 0.2
- EFSM — lower, ≤ 0.2
- GVPT — lower, ≤ 0.2
- FTQM — lower, ≤ 0.2
- YTPA — lower, ≤ 0.2
- RCHQ — lower, 0.223
- LMWW — lower, ≤ 0.2
- LRYW — lower, ≤ 0.2
- PCEF — lower, ≤ 0.2
- DVRS — lower, ≤ 0.2
- LKRC — lower, ≤ 0.2
- VTAK — lower, ≤ 0.2
- FQNT — lower, ≤ 0.2
- LRDI — lower, ≤ 0.2
- NSMR — lower, ≤ 0.2
- DLME — lower, ≤ 0.2
- QDKK — lower, ≤ 0.2
- FRRS — lower, ≤ 0.2
- EPNR — lower, ≤ 0.2
- SRQN — lower, ≤ 0.2
- QHEK — lower, ≤ 0.2
- DVCG — lower, ≤ 0.2
- MTST — lower, ≤ 0.2
- WNTE — lower, ≤ 0.2
- WRTA — lower, ≤ 0.2
- PCFR — lower, ≤ 0.2
- QAQD — lower, ≤ 0.2
- GEGP — lower, ≤ 0.2
- RTVW — lower, 0.218
- KVFF — lower, ≤ 0.2
- NREL — lower, ≤ 0.2
- LIHR — lower, ≤ 0.2
- LKYG — lower, ≤ 0.2
- IHQD — lower, ≤ 0.2
- HMLG — lower, ≤ 0.2
- GRKN — lower, ≤ 0.2
- DIIC — lower, ≤ 0.2
- QPGC — lower, ≤ 0.2
- PVSF — lower, ≤ 0.2
- KRKI — lower, ≤ 0.2
- WSCG — lower, ≤ 0.2
- CFIV — lower, ≤ 0.2
- VYTG — lower, ≤ 0.2
- PVLV — lower, ≤ 0.2
- SSAA — lower, ≤ 0.2
- HSPF — lower, ≤ 0.2
- AEHI — lower, ≤ 0.2
- ERTC — lower, ≤ 0.2
- YPMR — lower, ≤ 0.2
- MMAR — lower, ≤ 0.2
- NVDA — lower, ≤ 0.2
- GQAL — lower, ≤ 0.2
- TICR — lower, ≤ 0.2
- DGWC — lower, ≤ 0.2
- PILC — lower, ≤ 0.2
- RAGE — lower, ≤ 0.2
- QVRL — lower, ≤ 0.2
- ATML — lower, ≤ 0.2
- DHRM — lower, ≤ 0.2
- TEWR — lower, ≤ 0.2
- NPHG — lower, ≤ 0.2
- RRAM — lower, 0.271
- LEAS — lower, ≤ 0.2
- TQHH — lower, ≤ 0.2
- MVPK — lower, ≤ 0.2
- HRHY — lower, ≤ 0.2
- SNMC — lower, ≤ 0.2
- HTMF — lower, ≤ 0.2
- YGCT — lower, ≤ 0.2
- EPRI — lower, ≤ 0.2
- GYKT — lower, ≤ 0.2
- PILL — lower, ≤ 0.2
- RDKV — lower, ≤ 0.2
- NASH — lower, ≤ 0.2
- GPSV — lower, ≤ 0.2
- SKME — lower, ≤ 0.2
- NAAD — lower, ≤ 0.2
- FSKS — lower, ≤ 0.2
- TRRA — lower, ≤ 0.2
- SIKY — lower, ≤ 0.2
- RFGY — lower, 0.419
- VNCG — lower, ≤ 0.2
- KRCS — lower, ≤ 0.2
- PPHW — lower, ≤ 0.2
- VHNM — lower, ≤ 0.2
- WPRA — lower, ≤ 0.2
- LYNL — lower, ≤ 0.2
- QVWS — lower, ≤ 0.2
- ERNL — lower, ≤ 0.2
- LREC — lower, ≤ 0.2
- SLHQ — lower, ≤ 0.2
- SSPF — lower, ≤ 0.2
- RLDV — lower, ≤ 0.2
- ILFR — lower, ≤ 0.2
- EVRE — lower, ≤ 0.2
- NRHS — lower, ≤ 0.2
- NTRD — lower, ≤ 0.2
- PIDK — lower, ≤ 0.2
- KKWS — lower, ≤ 0.2
- GAAC — lower, ≤ 0.2
- EQGG — lower, ≤ 0.2
- MEKM — lower, ≤ 0.2
- VDGK — lower, ≤ 0.2
- QKNH — lower, ≤ 0.2
- RYYT — higher, 0.876
- SALT — lower, ≤ 0.2
- NCFW — lower, ≤ 0.2
- CVDS — lower, ≤ 0.2
- QDIV — lower, ≤ 0.2
- HRNH — lower, ≤ 0.2
- NIGI — lower, ≤ 0.2
- KMIR — lower, ≤ 0.2
- RSEQ — lower, ≤ 0.2
- GYKF — lower, ≤ 0.2
- AAAC — lower, ≤ 0.2
- DNFS — lower, ≤ 0.2
- RLSD — lower, ≤ 0.2
- PRRD — lower, ≤ 0.2
- TVCM — lower, ≤ 0.2
- KNMC — lower, ≤ 0.2
- HHIA — lower, ≤ 0.2
- RFMV — lower, ≤ 0.2
- FPIG — lower, ≤ 0.2
- EKVR — lower, ≤ 0.2
- QAAS — lower, ≤ 0.2
- SFHG — lower, ≤ 0.2
- IGNF — lower, ≤ 0.2
- VEHD — lower, ≤ 0.2
- RLKS — higher, 0.851
- RQRF — lower, 0.247
- VTKC — lower, ≤ 0.2
- PKTG — lower, ≤ 0.2
- CMCY — lower, ≤ 0.2
- WEGR — lower, ≤ 0.2
- VLDL — lower, ≤ 0.2
- SKKA — lower, ≤ 0.2
- AFGT — lower, ≤ 0.2
- YCLL — lower, ≤ 0.2
- LRPN — lower, ≤ 0.2
- MNVS — lower, ≤ 0.2
- PMII — lower, ≤ 0.2
- TFQR — lower, ≤ 0.2
- PAVN — lower, ≤ 0.2
- SKHC — lower, ≤ 0.2
- HDLW — lower, ≤ 0.2
- TSSM — lower, ≤ 0.2
- LART — lower, ≤ 0.2
- VWTD — lower, ≤ 0.2
- NLIL — lower, ≤ 0.2
- CMRV — lower, ≤ 0.2
- HCNC — lower, ≤ 0.2
- HGAT — lower, ≤ 0.2
- QKLT — lower, ≤ 0.2
- SEPW — lower, ≤ 0.2
- AKTD — lower, ≤ 0.2
- CWKV — lower, ≤ 0.2
- ACRD — lower, ≤ 0.2
- SIRY — lower, ≤ 0.2
- GLKR — lower, ≤ 0.2
- WSGS — lower, ≤ 0.2
- HTRE — lower, ≤ 0.2
- ANHF — lower, ≤ 0.2
- RSVE — lower, ≤ 0.2
- VVNS — lower, ≤ 0.2
- RRYY — lower, 0.28
- WRKT — lower, ≤ 0.2
- QAHM — lower, ≤ 0.2
- TWIC — lower, ≤ 0.2
- YSKK — lower, ≤ 0.2
- KIRV — lower, ≤ 0.2
- KTTM — lower, ≤ 0.2
- SCQG — lower, ≤ 0.2
- ARPM — lower, ≤ 0.2
- MTNS — lower, ≤ 0.2
- SWVG — lower, ≤ 0.2
- LQDT — lower, ≤ 0.2
- QSID — lower, ≤ 0.2
- AVLS — lower, ≤ 0.2
- KACL — lower, ≤ 0.2
- FTDF — lower, ≤ 0.2
- QPIE — lower, ≤ 0.2
- ITPG — lower, ≤ 0.2
- MRLI — lower, ≤ 0.2
- PCTH — lower, ≤ 0.2
- NSHC — lower, ≤ 0.2
- ATWW — lower, ≤ 0.2
- QGEL — lower, ≤ 0.2
- DPST — lower, ≤ 0.2
- RHSD — lower, ≤ 0.2
- HTAR — lower, ≤ 0.2
- VLYG — lower, ≤ 0.2
- QNPW — lower, ≤ 0.2
- HALI — lower, ≤ 0.2
- LKKE — lower, ≤ 0.2
- VTDV — lower, ≤ 0.2
- PTRT — lower, ≤ 0.2
- ASDT — lower, ≤ 0.2
- PIRD — lower, ≤ 0.2
- EMIY — lower, ≤ 0.2
- TLNL — lower, ≤ 0.2
